The record followed here is ChEMBL document CHEMBL4888484, “Replenishing the malaria drug discovery pipeline: Screening and hit evaluation of the MMV Hit Generation Library 1 (HGL1) against asexual blood stage Plasmodium falciparum ,using a nano luciferase reporter read-out” (2022).

About 540 (0.36%) of roughly 150,000 compounds showed an effect of 50% or more. Some of the results follow.

The experiment deals with Plasmodium falciparum. As to the kind of experiment: Primary screen in NF54 nanoGlo assay, in single point, at 2uM, 72h; a lower Z score goes with more inhibition. In kind it is functional, Erythrocyte. The conditions noted are these: timepoint 72 hour.
Broadly, the % Inhibition is the relative decrease from the control value, in per cent. For the compound `CCC1=C(C(=O)Nc2nnc(CC)s2)CCCO1`, the “% Inhibition” value is -11% and the Z score worked out at 1.14.
Consider `COc1cc(NC(=O)N(CCN(C)C)CC(C)C)cc(OC)c1`, for which the “% Inhibition” value is given as -12% and the Z score turned out to be 1.47.
In the case of `N[C@H]1CCCC[C@H]1c1nc(COc2ccc(F)c(Cl)c2)no1`, the “% Inhibition” value stood at 5% and the Z score is reported as -0.89.
The corresponding values for `N#Cc1c(-c2ccccc2)cc(-c2ccccc2)nc1S(=O)(=O)Cc1ccccc1` are 37% and -6.32.
Regarding `Cc1c[nH]c(CN(C)C(=O)Nc2cccc(N3C(=O)CC[C@@H]3C)c2)n1`, the “% Inhibition” value was 0% and the Z score is reported as 0.03.
As to `FC(F)(F)c1cccc(N2CCN(c3ncnc4onc(-c5ccc(Cl)cc5)c34)CC2)c1`, the “% Inhibition” value is -7% and the Z score came out at 1.08.
Regarding `NC(=O)[C@@H]1CN(Cc2ncc(C(F)(F)F)s2)CCO1`, the “% Inhibition” value was -12% and the Z score is recorded as 1.56.
Turning to `Cn1c(N2CCNCC2)nc2c1c(=O)n(CC(=O)c1ccccc1)c(=O)n2C`, the “% Inhibition” value is on record as 8% and the Z score was -1.02.
The corresponding values for `O=C(NCCN1CCCCC1)[C@H]1CCc2ncc(-c3ccc(F)cc3)n2C1` are 0% and 0.06.
In the case of `CCc1cnccc1C(=O)N1CCC(OCCCO)CC1`, the “% Inhibition” value was 16% and the Z score is listed as -2.99.
Consider `CC1CC(N2CCCc3ccccc32)C(=O)O1` (stereo not given), for which the “% Inhibition” value is -13% and the Z score is 1.38.
The corresponding values for `CCCNS(=O)(=O)c1cc(C(=O)NCc2ccco2)ccc1N1CCCC1` are -22% and 2.62.
Take `CCCCc1cc(C[C@@H]2C[C@H](NC(=O)C3CCCC3)C2(C)C)no1`: the “% Inhibition” value is on record as -5% and the Z score was 0.88.
For `COc1ccc(CC(=O)NCc2cccn2C)cc1`, the “% Inhibition” value was -4% and the Z score stood at 0.47.
As for `NC(=O)C1CCN(C(=O)C2(Cc3ccccc3)CC3CCC2C3)C1` (stereo not given), the “% Inhibition” value is recorded as -2% and the Z score was found to be 0.31.
For `CCCCN(CCCNC(=O)[C@H]1CCCN(c2ncnc3onc(C)c23)C1)Cc1ccccc1`, the “% Inhibition” value is given as 5% and the Z score was -0.69.
With `CC(C)c1nccn1C1CN(C(=O)NCCc2ccccc2)C1`, the “% Inhibition” value is given as -19% and the Z score stood at 2.35.
With `COC1(C)CC(N(C)C(=O)c2c[nH]c(C(C)C)n2)C1(C)C` (stereo not given), the “% Inhibition” value is given as -11% and the Z score came out at 1.46.
As to `COc1cc(COCC2CCN(C(=O)Nc3c(F)cccc3F)CC2)cc(OC)c1`, the “% Inhibition” value is -11% and the Z score is 1.25.
For `CC(NC(=O)CC(N)c1ccccc1)c1ccncc1` (stereo not given), the “% Inhibition” value is listed as -13% and the Z score worked out at 2.29.
Take `C[C@H]1CNCCN1C(=O)CCc1ccncc1`: the “% Inhibition” value was -15% and the Z score was determined as 1.9.
Turning to `COc1cccc(CNC(=O)c2cccc(NC(=O)c3nnc(CC(C)C)s3)c2)c1`, the “% Inhibition” value is -8% and the Z score turned out to be 1.11.
`O=C(CN1C(=O)c2ccccc2C1=O)N1CCN(c2nc3cccnc3o2)CC1`: the “% Inhibition” value is recorded as -12% and the Z score amounted to 1.17.
For `NC(=O)CO[C@H]1CCC12CCN(C(=O)c1cc3ccccc3[nH]1)CC2`, the “% Inhibition” value is on record as -6% and the Z score is on record as 0.72.
Consider `CN(C)C(=O)c1ccc(F)c(Br)c1`, for which the “% Inhibition” value is listed as -3% and the Z score is on record as 0.58.
`COc1cc(C)n(CCNC(=O)c2cccn3c(=O)cc(C)nc23)c(=O)c1`: the “% Inhibition” value is -7% and the Z score was found to be 1.37.
As for `O=S(=O)(Cc1ccon1)N1CC2C3CCC(C3)C2C1` (stereo not given), the “% Inhibition” value worked out at 5% and the Z score is given as -0.73.
With `CN(C(=O)C1CCCC1)c1cccc(C#N)c1`, the “% Inhibition” value is -8% and the Z score turned out to be 0.78.
Regarding `CCOC(=O)N1CCC(NC(=O)c2coc(NC(=O)Cc3c(C)noc3C)n2)CC1`, the “% Inhibition” value stood at 18% and the Z score was -2.53.
As to `O=C(NCc1ccc(F)cc1)c1nnc(C(=O)Nc2ccc(F)cc2)s1`, the “% Inhibition” value is given as -13% and the Z score stood at 1.21.
With `CN(C(=O)CN1C(=O)c2ccccc2C1=O)C1CCCC1`, the “% Inhibition” value was -3% and the Z score is given as 0.48.
`O=C(CN1C(=O)CCC1=O)N1CC(c2nc(-c3ccsc3)no2)C1`: the “% Inhibition” value is given as 3% and the Z score is listed as -0.39.
For the compound `CCc1ccc(C(=O)N[C@H]2C[C@H]3OCC[C@@H]23)[nH]1`, the “% Inhibition” value was found to be 4% and the Z score was -0.51.
As to `C#CCN(C)CCCNCc1ccoc1C`, the “% Inhibition” value amounted to 3% and the Z score was -0.52.
The corresponding values for `O=C(Nc1cnc(C2CC2)nc1)N(Cc1ccccc1)CC(F)F` are 0% and -0.06.
On to `CC1(CNC(=O)C2CCCCCC2)CCNCC1`, for which the “% Inhibition” value came to 4% and the Z score is -0.39.
Regarding `CCCc1ccc(C(=O)N2c3cccc([C@@]4(C)CC(C)(C)Nc5ccccc54)c3C(C)=CC2(C)C)cc1`, the “% Inhibition” value is -9% and the Z score turned out to be 1.68.
For `CN(C)Cc1ccc(NCc2cnc(C3CC3)o2)cc1Br`, the “% Inhibition” value is -4% and the Z score is on record as 0.72.
On to `CO[C@@H]1CN[C@@H](C(=O)NCCc2nc(-c3ccccc3)c(C)s2)C1`, for which the “% Inhibition” value is given as -1% and the Z score was 0.19.
The corresponding values for `O=C(NC[C@H]1CCC[C@@H]1O)c1cccc(Nc2nccs2)c1` are -19% and 2.93.
`CCCC(CCC)C(=O)Nc1c(C)cc(C)cc1C`: the “% Inhibition” value was determined as 0% and the Z score was -0.04.
In the case of `Cc1c(NC(=O)NCc2ccccc2CC(F)(F)F)nnn1C`, the “% Inhibition” value is given as -8% and the Z score is listed as 1.22.
For the compound `O=C(Nc1cc(-n2cncn2)ncn1)c1ccc(S(=O)(=O)N2CCCC2)cc1`, the “% Inhibition” value is recorded as -13% and the Z score turned out to be 2.19.
Consider `CC(C)(C)n1nnc(CNC2CCN(S(=O)(=O)NCC(F)(F)F)CC2)n1`, for which the “% Inhibition” value amounted to 5% and the Z score was -0.56.
Turning to `O=C(O)c1cc(-c2cc(F)cc(F)c2)cc(S(=O)(=O)N2CCOCC2)c1`, the “% Inhibition” value is -3% and the Z score is listed as 0.44.
Take `CC(=O)N1CC(C(=O)N[C@@](C)(C(N)=O)c2cccc(Cl)c2)C1`: the “% Inhibition” value is 0% and the Z score is reported as -0.02.
As for `CN(CC1(CO)CC1)C(=O)CCc1cncs1`, the “% Inhibition” value is 11% and the Z score is on record as -1.16.
For `Cc1cccc2c1ncn1nc(-c3ccccc3)c(=O)nc21`, the “% Inhibition” value is -15% and the Z score is 2.08.
As for `CC(C)[C@H](NS(=O)(=O)N1CCCC1)c1nccn1C`, the “% Inhibition” value is given as -7% and the Z score stood at 1.19.
In the case of `CNCC(=O)N1CC(=O)N(c2cccc(Cl)c2)C[C@@H]1Cc1ccccc1`, the “% Inhibition” value came out at 6% and the Z score was -0.57.
For the compound `COc1cc(Cc2noc(Cc3cnccc3C)n2)ccc1S(C)(=O)=O`, the “% Inhibition” value is given as -2% and the Z score stood at 0.42.
As to `Cc1occc1C(=O)NCC[C@H]1CCCN(C(=O)OC(C)(C)C)C1`, the “% Inhibition” value came out at 9% and the Z score is listed as -0.95.
Turning to `CC1(C)C(=O)Nc2cc(C(=O)N[C@H]3CCOC3(C)C)ccc21`, the “% Inhibition” value is listed as -18% and the Z score came to 1.91.
As for `Cc1cc(CC(=O)NCc2ccc3c(c2)C[C@H](C)O3)on1`, the “% Inhibition” value is -5% and the Z score came out at 0.7.
For the compound `O=C(CCc1ccc2c(c1)CCO2)NCc1ccco1`, the “% Inhibition” value is listed as -9% and the Z score came to 1.26.
For `C=C(CNC(=O)N1CCC(CN2CCNC2=O)CC1)c1ccccc1`, the “% Inhibition” value was -1% and the Z score was found to be 0.21.
The corresponding values for `O=C(NC[C@H](O)c1ccccc1)c1cnsn1` are 2% and -0.31.
For the compound `Cc1nc(C(C)C)sc1[C@H](C)N(C)CC(=O)NC(=O)Nc1ccccc1`, the “% Inhibition” value is listed as 31% and the Z score is on record as -3.5.
The corresponding values for `COc1ccc(-c2noc(Cn3nc4ccc(-c5ccccc5)nn4c3=O)n2)cc1OC` are -11% and 1.45.
`Cc1cc(C)nc(O[C@H]2CCN(C(=O)c3ccno3)C2)n1`: the “% Inhibition” value is given as -1% and the Z score is on record as 0.15.
For `COc1cccc(NC(=O)Cc2nnc(-c3ccsc3)o2)c1`, the “% Inhibition” value is -7% and the Z score came out at 0.68.
The corresponding values for `CCOc1ccccc1NC(=O)Cn1c(N2CCc3ccccc3C2)nc(C)cc1=O` are -22% and 1.92.
As for `CCCCS(=O)(=O)NC[C@H](O)c1cccc(F)c1`, the “% Inhibition” value is on record as -7% and the Z score worked out at 0.89.
Turning to `CC(C)[C@H](CCO)NC(=O)C(C)(C)N1CCCCC1`, the “% Inhibition” value is reported as -13% and the Z score turned out to be 1.78.
Turning to `O=C1CN(C(=O)c2cccs2)c2ccccc2N1`, the “% Inhibition” value is recorded as 3% and the Z score is -0.53.
Turning to `N#Cc1cccc(S(=O)(=O)N2CCOC[C@H]2c2noc(-c3ccccc3)n2)c1`, the “% Inhibition” value is recorded as 2% and the Z score was -0.17.
The corresponding values for `CCCC(CCC)C(=O)N1CCC[C@H](Oc2nc(C3CC3)nc3c2CCOCC3)C1` are -7% and 0.64.
Take `O=C(Nc1ccc(Cl)cc1)c1nnc(C(=O)N2CCC[C@H](C(=O)N3CCCCCC3)C2)s1`: the “% Inhibition” value is on record as -28% and the Z score was 2.49.
In the case of `O=C(NCCc1ccccc1)C1CCC(Cn2cnnn2)CC1` (stereo not given), the “% Inhibition” value is given as -2% and the Z score came out at 0.29.
With `COCc1nc(CNC(=O)N2CC3(CCCC3)C2)c(-c2ccccc2)s1`, the “% Inhibition” value is recorded as 18% and the Z score is listed as -2.32.
Consider `COc1ccc(CN(C)[C@H]2CCc3nn(C)c(=O)n3CC2)c(Cl)c1OC`, for which the “% Inhibition” value is 32% and the Z score was -4.3.
Regarding `CCCc1cc(C(=O)Nc2cc(C)on2)cs1`, the “% Inhibition” value is listed as -4% and the Z score is 0.52.
The corresponding values for `O=C(NCc1ccc(N2CCCS2(=O)=O)cc1)c1cc2sccc2[nH]1` are -13% and 2.05.
Consider `CC[C@@H](C(=O)NCc1cnc(C)cn1)n1cccn1`, for which the “% Inhibition” value is on record as 20% and the Z score is on record as -2.58.
Consider `CN(CCCN1CCOCC1)c1cc([C@H]2C[C@@H](O)C2)ncn1`, for which the “% Inhibition” value was -4% and the Z score worked out at 0.65.
As for `Cc1nc(-c2cc(S(=O)(=O)NCC(=O)N3CCN(c4cccc(Cl)c4)CC3)c(C)s2)no1`, the “% Inhibition” value was -10% and the Z score is listed as 0.96.
The corresponding values for `CCc1nc(N2CCN(CC=C(C)C)[C@H](C(=O)O)C2)no1` are -7% and 0.74.
The corresponding values for `C[C@H](NCc1ccccc1)c1ccc2c(c1)C(C)(C)C(=O)N2` are -13% and 1.2.
As for `COc1cccc(CN(Cc2ccc(C(O)(c3ccccc3)c3ccccc3)o2)CC(C)C)c1OC`, the “% Inhibition” value came out at 4% and the Z score is recorded as -0.5.
The corresponding values for `CCc1ccc(OC[C@H]2Cn3c(nc4c(=O)n(C)c(=O)n(C)c43)O2)cc1` are -15% and 1.43.
The corresponding values for `Cn1cc(Br)cc1C(=O)NCCn1cnnc1C1CC1` are -6% and 0.59.
In the case of `Cn1ccc([C@H]2CCCN(CCC(C)(C)CC(=O)O)C2)n1`, the “% Inhibition” value was 1% and the Z score is -0.11.
As to `COc1ccc([C@H](C)NCc2c3c(nn2C)CCCC3)c(OC)c1`, the “% Inhibition” value is recorded as -5% and the Z score was determined as 0.64.
Turning to `C[C@@H](C1CC1)N(C)CC(=O)N1CCCCCC1`, the “% Inhibition” value is on record as -7% and the Z score is listed as 1.34.
Take `CC(C)(C)CNC(=O)NCCCN1C(=O)CCC1=O`: the “% Inhibition” value is recorded as 11% and the Z score was -1.37.
